# PubChem BioAssay AID463173 (ICCB-Longwood Screening Facility, Harvard Medical School, 2010)
# The whole screen tested about 52,000 compounds, of which about 1,700 (3.3%) were called active. Cut-off read from the data, not from the text of the source: active = survival mostly below about 52% (no sharp cut-off); inactive = mostly above about 56%. Some of the results follow.
# Tested on: Wild type
# Assay: growth inhibition of S. aureus wild type versus tarO mutant, primary screen, teichoic acid synthesis inhibitors, RN4220, OD600 (AID 463173)
# Details: S. aureus RN4220 wild type/DeltatarO growth, OD600, 18 h, stronger effect = lower value, screened at 18.75 µg/mL (by protocol)
row,Structure (SMILES),survival
1,O=C(NCCCN1CCN(c2ccc(F)cc2)CC1)c1sc2ncccc2c1-n1cccc1,inactive: 32%
2,COc1ccc(OC)c(S(=O)(=O)N2Cc3ccccc3CC2C(=O)Nc2ccc(Cl)cc2)c1 (stereo not drawn),inactive: 78%
3,Cc1ccc2c(c1)C(=O)C(=O)N2Cc1ccc(OC(C)C)cc1,inactive: 62%
4,COc1ccc(CNc2nccs2)cc1OC,inactive: 112%
5,CCOC(=O)c1cc(-c2ccccc2)n(CCC(=O)Nc2ccc(C)cc2Cl)c1C,inactive: 113%
6,Oc1c(CN2CCOCC2)cc(CN2CCOCC2)cc1CN1CCOCC1,inactive: 116%
7,Cc1ccc(-n2nc(CO)c(C(=O)NCCCCc3ccccc3)n2)cc1,inactive: 121%
8,Cc1cc(C)cc(NC(=O)CCS(=O)(=O)c2ccc3nc(C)sc3c2)c1,inactive: 82%
9,O=C1C(c2ccc(F)cc2)N(Cc2ccccc2Cl)C(=O)CN1C1CCCCC1 (stereo not drawn),inactive: 81%
10,Cc1ccc(C(=O)N2CCC(N3CCN(Cc4ccc(F)cc4)C(=O)C3=O)CC2)cc1,inactive: 78%
11,CCOc1ccc(-c2nn(-c3ccccc3)cc2C2NC(=O)NC(C)=C2C(=O)OC(C)C)cc1C (stereo not drawn),inactive: 70%
12,CCN(CC)CCn1c2c(c(SCC(=O)Nc3cccc(C(F)(F)F)c3)nc1=O)CCC2,inactive: 91%
13,Cc1cccc(CNC(=O)Cc2ccc(NC(=O)N3CCCCc4ccccc43)cc2)c1,inactive: 77%
14,CCOc1ccc(-c2cn3c(n2)sc2cc(C(=O)NCCCN(CC)CC)ccc23)cc1,active: 2%
15,COc1ccc(CCNC(=O)CCCCn2c(=O)c3ccccc3n(Cc3ccc(Cl)cc3)c2=O)cc1OC,inactive: 105%
16,COc1cccc(CNC(=O)c2oc3ccc4c(c3c2C)C(=O)CC(C)(C)O4)c1OC,inactive: 84%
17,COc1ccc(CNC(=O)c2cc3c(=O)n4cccc(C)c4nc3s2)cc1,inactive: 95%
18,Cc1ccc(C(=O)O/N=C(/c2nonc2N)N(C)C)cc1,inactive: 113%
19,CCOC(=O)c1ccc(NC(=O)C(C)N(c2ccc(OCC)cc2)S(C)(=O)=O)cc1 (stereo not drawn),inactive: 84%
20,Cc1c(C(=O)Nc2ccc(F)c(F)c2)oc2ccc(S(=O)(=O)N(C)C3CCCCC3)cc12,inactive: 74%
21,CCOC(=O)c1[nH]c(C)c(CCC(=O)NC(C)c2ccccc2)c1C (stereo not drawn),inactive: 72%
22,Cc1ccc(N(C)C(=O)Cn2cc(S(=O)(=O)N3CCCC3)c(S(=O)(=O)N3CCCC3)c2)cc1,inactive: 73%

row,Structure (SMILES),survival
1,Cc1ccc(C(=O)Nc2nc(-c3nnn(-c4cccc(Cl)c4C)c3C)ns2)cc1C,inactive: 136%
2,COc1cccc(-c2nc(CS(=O)(=O)CC(=O)NCCc3ccc(OC)c(OC)c3)c(C)o2)c1,inactive: 79%
3,COc1ccc(NC(=O)c2oc3c(c2C)-c2nn(Cc4ccccc4Cl)cc2CC3)cc1OC,inactive: 80%
4,Cc1ccc(-n2c(=O)c3c(cnn3C)n(CC(=O)Nc3c(C)cccc3C)c2=O)cc1,inactive: 87%
5,C=Cc1ccc(CSc2nnc(C)n3c2cc2occc23)cc1,inactive: 30%
6,Cn1c(=O)c2c(n3ncnc13)NC(=O)CC2c1cccc(F)c1 (stereo not drawn),inactive: 85%
7,COc1ccc(NS(=O)(=O)c2ccc3c(c2)CC(C)N3C(C)=O)c(OC)c1 (stereo not drawn),inactive: 85%
8,CCOC(=O)C1=C(CN2CCN(c3cccc(OC)c3)CC2)NC(=O)NC1c1ccc(OC)cc1 (stereo not drawn),inactive: 92%
9,Cc1ccc2c(CC(=O)N(Cc3ccc(Cl)cc3)Cc3ccco3)coc2c1,inactive: 113%
10,Cc1ccccc1Nc1cc(C(=O)NCCc2ccc(Cl)cc2)c2ccccc2n1,inactive: 102%
11,CC(CNC(=O)Cn1c(-c2cccs2)cc2ccccc21)c1ccccc1 (stereo not drawn),inactive: 143%
12,CCC(=O)N1CCc2cc(Br)cc(S(=O)(=O)N3CCCC(C(=O)NCc4ccc(OC)cc4)C3)c21 (stereo not drawn),inactive: 97%
13,Cn1c(O)c(C=NCC2CCN(C(=S)Nc3ccccc3)CC2)c(=O)n(C)c1=O,inactive: 117%
14,COC(=O)Cc1c(C)c2ccc3c(c2oc1=O)CN(Cc1ccccc1OC)CO3,inactive: 120%
15,COc1cccc(C(=O)Nc2c(C(=O)c3ccc(F)cc3)oc3ccccc23)c1,inactive: 72%
16,CCCC(=O)Nc1c2c(nc3ccccc13)N(c1ccccc1)CC2,inactive: 110%
17,COc1cc(C2c3c(oc4ccc(C)cc4c3=O)C(=O)N2Cc2ccccc2)ccc1O (stereo not drawn),inactive: 91%
18,O=C(Nc1cccc(F)c1)c1cccc2c1C(=O)N(C1CCCCC1)C2,inactive: 74%
19,Cc1ccc(Cl)cc1N1CCN(CCCNC(=O)c2nnc(Cc3cccc(Cl)c3)o2)CC1,active: 12%
20,CCCOc1ccc(C2c3c(-c4ccccc4O)n[nH]c3C(=O)N2CCCOCC)cc1OCC (stereo not drawn),inactive: 82%
21,CCC(=O)N1CCCc2cc(S(=O)(=O)N3CCC(C(=O)Nc4ccccc4CC)CC3)ccc21,inactive: 152%
22,COc1cccc(NC(=O)CSc2nnc(-c3cccs3)o2)c1,inactive: 86%

row,Structure (SMILES),survival
1,COc1ccccc1NC(=O)Cn1c(=O)n(-c2cccc(Cl)c2)c(=O)c2c1c1cc(C)ccc1n2C,inactive: 82%
2,CC1=C(c2ccc(C)c(C)c2)S(=O)(=O)N=C1N1CCC(C(=O)Nc2cccc(F)c2)CC1,inactive: 71%
3,CC(C)C(c1nnnn1CCc1ccccc1)N1CCCC1 (stereo not drawn),inactive: 122%
4,Cc1cc(C)cc(Nc2nnc(-n3nc(C)cc3C)c3ccccc23)c1,inactive: 86%
5,CN1CCc2nc3sc(C(=O)Nc4cccc(C#N)c4)c(N)c3cc2C1,inactive: 91%
6,CCCOc1ccc(NC(=O)CC2C(=O)N(c3ccc(Cl)cc3)C(=O)N2CCc2ccncc2)cc1 (stereo not drawn),inactive: 124%
7,O=S(=O)(c1ccc(F)cc1)n1cccc1,inactive: 115%
8,CCN1CCN(Cc2c(O)ccc3oc(C)c(C(=O)Nc4ccc(C)cc4C)c23)CC1,inactive: 84%
9,CCc1ccccc1NC(=O)CSc1ncc(S(=O)(=O)c2ccccc2)c(=O)[nH]1,inactive: 90%
10,CCc1ccc(N(C(=O)c2ccco2)C(C(=O)NC2CCCC2)c2ccncc2)cc1 (stereo not drawn),inactive: 108%
11,Cc1cccc(OCC(=O)Nc2ccc(Cl)c(-c3nc4ccccc4[nH]3)c2)c1,inactive: 50%
12,Cc1ccc(OC(=O)c2cccnc2)cc1,inactive: 105%
13,O=C1CC(c2nnc(Cc3ccccc3Cl)o2)CN1c1ccccc1 (stereo not drawn),inactive: 108%
14,C=C(C)c1nc2cc(OC)c(OC)cc2c(=O)o1,inactive: 101%
15,Cc1ccc(-c2cc3c(n2-c2ccccc2F)CC(C)(C)CC3=O)cc1,inactive: 103%
16,Cc1c(C)n(Cc2ccc(F)cc2)c2ccc(C(=O)Nc3ccc(Cl)cc3)cc12,inactive: 71%
17,O=C(CC1C(=O)N(c2ccccc2)C(=O)N1Cc1ccc2c(c1)OCO2)Nc1ccccc1 (stereo not drawn),inactive: 77%
18,CCOC(=O)c1ccc(CN(Cc2ccccc2C)S(=O)(=O)c2ccc(F)c(C(=O)Nc3cccc(OC)c3)c2)cc1,inactive: 63%
19,COc1ccc(NC(=O)c2oc3ccccc3c2NC(=O)Cc2cccs2)cc1,inactive: 90%
20,CCOC(=O)c1cnc2ccc(C)cc2c1NCCc1ccc(OC)c(OC)c1,inactive: 117%
21,Cc1ccc(NC(=O)c2sc3nc(-c4ccc(F)cc4)ccc3c2N)cc1F,inactive: 91%
22,O=C(CN1C(=O)CSc2ccc(S(=O)(=O)N3CCCC3)cc21)NCc1ccc(Cl)cc1,inactive: 52%

row,Structure (SMILES),survival
1,COc1ccc(NC(=O)CN2C(=O)COc3ccc(S(=O)(=O)N4CCCCC4)cc32)cc1Cl,inactive: 86%
2,O=S(=O)(Cc1ccccc1)N1CCN(Cc2ccco2)CC1,inactive: 111%
3,CCSC(=C(C#N)C#N)c1cc2c([nH]1)CCCC2,inactive: 116%
4,COc1ccc(C)cc1NC(=O)N1CCN(c2cc(-c3noc(C)n3)ccc2C)CC1,inactive: 85%
5,CC1CCCCC1NC(=O)CN1CCC(NC(=O)c2cccc(F)c2)CC1 (stereo not drawn),inactive: 112%
6,CCC1CCCCN1CCCNC(=O)c1ccc2c(c1)N(Cc1ccc(Cl)cc1)C(=O)c1ccccc1S2(=O)=O (stereo not drawn),inactive: 113%
7,COc1ccccc1N1CCN(c2ccc(-c3nc(-c4ccccc4)no3)cc2[N+](=O)[O-])CC1,inactive: 85%
8,O=C(Cn1cc(C(=O)C2CC2)c2ccccc21)Nc1ccc(Br)cc1,inactive: 103%
9,CCN1C(=O)/C(=C2/Sc3ccc(OC)cc3N2CC)SC1=Nc1ccc2c(c1)OCCO2,inactive: 98%
10,C[n+]1ccccc1C(O)Cc1ccncc1 (stereo not drawn),inactive: 120%
11,Cc1ccc(C)c(Cn2c(=O)n(CCCCCC(=O)NCc3ccc4c(c3)OCO4)c(=O)c3sccc32)c1,inactive: 102%
12,CC(=O)c1ccc(NC(=O)CCCc2nc(-c3cccc(C)c3)no2)cc1,inactive: 74%
13,COc1ccc(C2CC(=O)c3c(C)nc(N4CCN(C=O)CC4)nc3C2)c(OC)c1 (stereo not drawn),inactive: 94%
14,CCn1c(=O)sc2cc(NC(=O)c3cccc(OC)c3)ccc21,inactive: 62%
15,O=C(Cn1ccn(-c2ccc(F)c(F)c2)c(=O)c1=O)c1ccc(F)cc1,inactive: 86%
16,CC(C)c1nn2c(=O)cc(COC(=O)CNC(=O)c3ccccc3Cl)nc2s1,inactive: 140%
17,CCN(CC)C(=O)C1CCN(S(=O)(=O)c2ccc(C)cc2)CC1,inactive: 113%
18,CCN1CCN(c2nnc(-n3cccc3C(=O)Nc3cccc(OC)c3)s2)CC1,inactive: 79%
19,Cc1ccc2[nH]c(=O)c(CN(C(=O)NC3CCCCC3)C3CCCCC3)cc2c1,inactive: 98%
20,CC(=O)NC(Cc1cccc(C)c1)C(=O)NC1CCN(c2nc(C)cc(C)c2C#N)CC1 (stereo not drawn),inactive: 98%
21,CCOc1ccc(Cn2c(CNS(=O)(=O)c3c(C)cc(C)cc3C)nc3cccnc32)cc1,inactive: 47%
22,CCC(C)n1c(SCc2ccc(C(C)(C)C)cc2)nc2ccsc2c1=O (stereo not drawn),inactive: 55%
